Laboratory results taken from the BET-seq Pho4 binding data (Le et al. 2018).
The other results are listed elsewhere or left out. These are noisy estimates, calculated here from bound and input reads.

biological target: T1, Pho4 (S. cerevisiae) (UniProt P07270); assay: relative binding free energy (BET-seq); higher = weaker binding; details: reference: library average
T1 sequence: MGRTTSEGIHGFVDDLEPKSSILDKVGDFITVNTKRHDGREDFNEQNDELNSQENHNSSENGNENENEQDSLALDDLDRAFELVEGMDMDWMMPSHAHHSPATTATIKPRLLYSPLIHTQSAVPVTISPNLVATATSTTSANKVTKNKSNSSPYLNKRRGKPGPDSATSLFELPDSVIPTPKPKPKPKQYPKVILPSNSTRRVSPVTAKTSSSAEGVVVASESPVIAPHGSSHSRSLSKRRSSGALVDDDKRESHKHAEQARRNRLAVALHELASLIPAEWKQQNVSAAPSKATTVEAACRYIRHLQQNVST

| Sequence | relative binding free energy [kcal/mol] |
| --- | --- |
| TTTGACACGTGGAGGA | -0.03 |
| ATAGGCACGTGAAGGG | 0.12 |
| CTTGGCACGTGGGACG | -0.21 |
| CGTCGCACGTGTGGGC | -0.08 |
| AGTTTCACGTGTCTGT | 0.18 |
| GTTGGCACGTGCTAAT | -0.08 |
| GAGGGCACGTGTAGTT | 0.13 |
| GGTTGCACGTGGCTCG | -0.17 |
| GAGAGCACGTGGGGTA | -0.26 |
| GGCATCACGTGTGTGG | 0.11 |
| TGATCCACGTGGTAGG | -0.15 |
| TGGAACACGTGTGTGC | 0.16 |
| TGCAGCACGTGTTTTG | -0.04 |
| CTGGGCACGTGGATTT | 0.01 |
| TGTAACACGTGGATGC | 0.05 |
| GAGGGCACGTGCGTTT | -0.06 |
| AGGCTCACGTGTTTGG | 0.27 |
| TCCGTCACGTGTGGTG | 0.15 |
| CGGGGCACGTGTAGCA | -0.05 |
| GGGATCACGTGTGTCG | 0.24 |
| ATGGGCACGTGAGAGG | 0.12 |
| TGGGACACGTGAAAAT | 0.34 |
| TGGGTCACGTGTTTAT | 0.21 |
| TATAGCACGTGAATGA | 0.2 |
| ATTGTCACGTGTGCGA | 0.1 |

| Sequence | relative binding free energy [kcal/mol] |
| --- | --- |
| TAAGGCACGTGTAAGA | 0.01 |
| GGTGGCACGTGAGCTA | 0.03 |
| CTCTTCACGTGTGGTT | 0.39 |
| GTGACCACGTGGTGGC | -0.03 |
| GGAGGCACGTGCGTGA | -0.18 |
| TGTTTCACGTGGAAAA | 0.25 |
| TGCTTCACGTGGTGTC | 0.28 |
| GCAGGCACGTGGTTGG | -0.08 |
| TATTACACGTGAAAGT | 0.44 |
| AAAATCACGTGGGGTC | 0.21 |
| ATGTTCACGTGAGATG | 0.44 |
| TGTTTCACGTGGCAAT | 0.24 |
| TTATACACGTGGGGGG | -0.07 |
| GGGTGCACGTGGTTCA | -0.05 |
| ATCGCCACGTGGGGAT | -0.11 |
| ATAAGCACGTGGATGA | 0.08 |
| TGGTGCACGTGTGTAG | 0.07 |
| CTATGCACGTGAGTTT | 0.11 |
| GTTAGCACGTGCATGT | -0.01 |
| TTTTGCACGTGGTTAC | -0.04 |
| TAGCTCACGTGTTGTT | 0.23 |
| AAGTACACGTGAGGGA | 0.31 |
| GAGATCACGTGTGTGA | 0.27 |
| GTGTGCACGTGAGTGA | 0.34 |
| CTCGGCACGTGTAGGG | -0.12 |

| Sequence | relative binding free energy [kcal/mol] |
| --- | --- |
| AATTTCACGTGTAGCG | 0.23 |
| GGTGTCACGTGTCAGT | 0.13 |
| GGGATCACGTGTGAAT | 0.27 |
| GCTGTCACGTGGGGAC | 0.04 |
| CGTGGCACGTGGTAGA | -0.13 |
| ATAGGCACGTGGGAGC | -0.23 |
| TTGGGCACGTGTTGAT | -0.06 |
| GATGTCACGTGGTGTT | 0.14 |
| AGGTTCACGTGTGAAG | 0.27 |
| TGGTTCACGTGATTAA | 0.39 |
| AGATTCACGTGGGTGT | 0.19 |
| GTAAACACGTGTAGCT | 0.27 |
| TAGAGCACGTGGAGTT | 0.14 |
| TATTACACGTGTACGG | 0.11 |
| GGGCACACGTGAGGTG | 0.25 |
| GCTGTCACGTGGTAGG | 0.05 |
| TAGTGCACGTGCCGGT | -0.15 |
| GGTAACACGTGTGGAC | 0.08 |
| TTTGCCACGTGTTTAG | 0.01 |
| ATTGACACGTGCAGTT | -0.11 |
| AGTTGCACGTGGATCT | 0.06 |
| GGATTCACGTGAGTGG | 0.43 |
| TTTATCACGTGGGTTG | 0.05 |
| ATGGTCACGTGTGTAG | 0.08 |
| TTTAGCACGTGGAACT | 0.18 |

| Sequence | relative binding free energy [kcal/mol] |
| --- | --- |
| TTCGTCACGTGGGTTC | 0.04 |
| CGAGGCACGTGGTAGG | -0.17 |
| TAGGCCACGTGGAGTT | -0.09 |
| TGAGTCACGTGATGCG | 0.18 |
| GGGTGCACGTGCGTGA | -0.06 |
| ATTGGCACGTGGTACG | -0.23 |
| GTTTTCACGTGGAATA | 0.16 |
| TTGAACACGTGCTTTG | 0.09 |
| GGCTCCACGTGAGAGG | 0.39 |
| GGATGCACGTGTGTCG | 0.2 |
| TTCTGCACGTGGGCAT | 0.03 |
| TAGGACACGTGGAATT | 0.12 |
| CGGTGCACGTGGATGT | -0.12 |
| ATAGTCACGTGTTTGG | 0.12 |
| TGGGGCACGTGAATCG | 0.09 |
| GGTGGCACGTGGAGGG | -0.05 |
| AAGTCCACGTGTGTTG | 0.02 |
| GTGGCCACGTGGTTGT | -0.07 |
| TAATACACGTGGGCGG | -0.11 |
| CGAGGCACGTGTGATT | 0.03 |
| TTTGACACGTGTATTC | 0.01 |
| CTTAACACGTGATTGG | 0.09 |
| GGGGACACGTGTATAT | 0.11 |
| GGTCACACGTGTGGCG | 0.09 |
| TGGATCACGTGGATAG | 0.17 |

| Sequence | relative binding free energy [kcal/mol] |
| --- | --- |
| TTGCTCACGTGAGTTG | 0.36 |
| GGTTTCACGTGTCAGG | 0.37 |
| TATAGCACGTGGAGTG | -0.22 |
| GCTGTCACGTGGCGGG | -0.06 |
| CTATTCACGTGTGGTT | 0.17 |
| ATCGACACGTGTTTGT | 0.07 |
| TTTTGCACGTGACGAT | 0.05 |
| CGAGTCACGTGGGTTT | 0.05 |
| TTTATCACGTGTGATA | 0.19 |
| AGTGGCACGTGCGTGG | -0.19 |
| GTTTCCACGTGGCGTT | 0.13 |
| AGGTGCACGTGGATTG | 0.08 |
| TGGATCACGTGAGGGA | 0.27 |
| AATGGCACGTGGAAGG | -0.17 |
| TTGAGCACGTGTTTGG | -0.01 |
| GGTTGCACGTGGCAGC | -0.07 |
| CATATCACGTGGTGTG | 0.01 |
| CTGAGCACGTGGGGAA | -0.14 |
| TTTAACACGTGTACTG | 0.1 |
| TGTCGCACGTGTTAAT | -0.08 |
| AATTTCACGTGTAGGG | 0.2 |
| GCCGGCACGTGGGTGG | -0.26 |
| TGAGGCACGTGGTACT | -0.1 |
| GGATGCACGTGGTGAT | 0.01 |
| GTGTGCACGTGGTGTG | -0.1 |

| Sequence | relative binding free energy [kcal/mol] |
| --- | --- |
| GTTAGCACGTGGTGTG | -0.11 |
| TTAATCACGTGGTTTC | 0.03 |
| AGCCGCACGTGGGAGG | -0.22 |
| ATGGGCACGTGTGATC | -0.09 |
| GTGGGCACGTGAAGAG | 0.16 |
| AGTGACACGTGATATG | 0.07 |
| GTGTCCACGTGTGGTC | 0.17 |
| ATGAGCACGTGCGTGG | -0.27 |
| GTGTTCACGTGGGTAC | 0.12 |
| TTTCGCACGTGTGATT | 0.1 |
| TTTTGCACGTGGGACT | -0.03 |
| TGAAACACGTGGGCTG | -0.02 |
| GGAAGCACGTGGGAGA | -0.11 |
| TTAGGCACGTGACTGT | -0.08 |
| TGCATCACGTGATTGT | 0.1 |
| AGCATCACGTGTTGTG | 0.1 |
| TTTTGCACGTGAATTA | 0.13 |
| TATTACACGTGTAGCT | 0.07 |
| GTGCGCACGTGGTTTT | -0.13 |
| AGTTGCACGTGCTTTG | -0.01 |
| TTGAGCACGTGGTTTC | 0 |
